Measurements taken from PubChem BioAssay AID2060623 (Molecular Pharmacology Branch, DTP, NCI, 2025).
The source holds more than one record for some entries. Only these are listed. An entry can have further records. Results that share an entry repeat one measurement in other runs, samples, wells, individuals or studies.

Test system: 227483-062-R1-J1-PDC complex spheroids with HUVEC/MSC, viability
Assay: Anticancer human tumor 227483-062-R1-J1-PDC patient-derived pancreatic carcinoma cell line growth inhibition [CLK]
Details: compound alone; run of 09/19/2023
Description: A high-throughput screen of multi-cell type tumor spheroids was designed to identify active combinations of […] and targeted small molecules. Complex spheroids include a stromal component modeled by human endothelial cells (HUVEC) and fibroblasts modeled by human mesenchymal stem cells (MSCs). The concentration ranges selected for each drug and investigational agent were based upon clinically achievable concentrations if the clinical Cmax of the agent was known.
Compounds. The drugs and investigational agents: cirtuvivint (SM08502; NSC835563), CC-671 (NSC850746), vemurafenib (NSC761431), tapotoclax (NSC804041), sotorasib (NSC818433), adagrasib (NSC831453), MRTX-1133 (NSC836407), BAY2416964 (NSC825713), copanlisib (NSC816437), inavolisib (NSC800729), abemaciclib (NSC768073), osimertinib (NSC779217), entinostat (NSC756642), eltanexor (KPT-8602, NSC794443), venetoclax (NSC766270), ceralasertib (NSC777638), bortezomib (NSC756655), olaparib (NSC753686), talazoparib (NSC767125), alisertib (NSC759677), peposertib (NSC802822), gemcitabine (NSC613327), 5-fluorouracil (NSC19893), SN-38 (NSC673596), oxaliplatin (NSC266046), paclitaxel (NSC125973), and doxorubicin (NSC123127), were obtained from the National Cancer Institute (NCI) Developmental Therapeutics Program Chemical Repository. […] If the clinical Cmax for an agent had not been determined, the highest concentration tested was 10 microM. […]
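Further: spheroids exposed to compounds for seven days before readout.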

`CNC(=O)c1ccc(Nc2nc(OC3CCCC3)c3c(-c4ccc5nc(C)oc5c4)c[nH]c3n2)c(OC)c1` was tested, and the IC50 was 1.87, 2.96, 2.13, 2.87, 1.64, 2.57, 2.07, 1.67, 6.53, 3.48, 5.7 µM.
